Measurements reported in paper PMC6023881.
These are yes or no findings as the source states them, for the method shown. For part of these data: Binding seen in cells or lysates may run through a third protein. Some entries that bind do so weakly or less than the wild type. For part of these data: Tags and fused reporters may be left off the sequences shown.

Sequences of proteins named here, by UniProt entry; tags and fusion partners are left off. A change or cut given only in a name is not applied to a line headed by its entry. Residues count along the entry.
UniProt Q13485: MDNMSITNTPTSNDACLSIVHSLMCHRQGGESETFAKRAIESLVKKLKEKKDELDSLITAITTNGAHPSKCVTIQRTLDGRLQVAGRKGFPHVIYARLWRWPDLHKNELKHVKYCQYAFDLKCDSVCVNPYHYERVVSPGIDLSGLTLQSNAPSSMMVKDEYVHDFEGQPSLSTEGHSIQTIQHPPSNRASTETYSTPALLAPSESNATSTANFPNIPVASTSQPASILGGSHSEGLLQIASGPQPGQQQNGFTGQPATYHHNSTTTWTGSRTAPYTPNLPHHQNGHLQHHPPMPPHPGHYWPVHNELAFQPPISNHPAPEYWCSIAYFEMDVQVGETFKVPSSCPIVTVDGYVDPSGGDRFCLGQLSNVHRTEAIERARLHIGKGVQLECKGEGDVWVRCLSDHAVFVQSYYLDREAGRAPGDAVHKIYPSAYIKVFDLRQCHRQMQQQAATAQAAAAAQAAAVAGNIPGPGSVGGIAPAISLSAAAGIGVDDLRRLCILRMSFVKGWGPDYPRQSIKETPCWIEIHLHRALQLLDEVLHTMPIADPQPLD
GST-Smad4-MH1: residues 18-142 of Q13485
GST-Smad4 MH2 domain: residues 323-552 of Q13485
UniProt Q9H4L4: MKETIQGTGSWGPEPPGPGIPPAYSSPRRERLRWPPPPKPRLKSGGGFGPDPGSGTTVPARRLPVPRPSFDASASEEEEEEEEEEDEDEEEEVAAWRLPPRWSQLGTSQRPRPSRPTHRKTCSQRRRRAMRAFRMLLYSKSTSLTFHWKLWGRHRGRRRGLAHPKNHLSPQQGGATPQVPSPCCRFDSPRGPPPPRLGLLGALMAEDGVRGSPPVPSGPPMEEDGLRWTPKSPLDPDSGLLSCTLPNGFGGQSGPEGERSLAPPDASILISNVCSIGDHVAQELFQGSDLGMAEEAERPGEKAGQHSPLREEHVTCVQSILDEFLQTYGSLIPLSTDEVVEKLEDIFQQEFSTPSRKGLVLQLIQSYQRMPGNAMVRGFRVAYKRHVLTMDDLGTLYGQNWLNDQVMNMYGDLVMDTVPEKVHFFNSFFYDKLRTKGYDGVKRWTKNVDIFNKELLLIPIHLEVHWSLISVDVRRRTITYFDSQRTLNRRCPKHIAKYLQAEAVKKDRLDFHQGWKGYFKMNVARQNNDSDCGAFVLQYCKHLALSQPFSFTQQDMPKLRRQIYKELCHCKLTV

Key:
LexA-Smad4 = LexA-Smad4 (UniProt Q13485); assay: two-hybrid; LexA-Smad4 as bait, Gal-AD-SENP variants as prey, L40 yeast; β-galactosidase liquid assay normalised by cell density
Flag-SENP2 (human) = molecular target: T1, Flag-SENP2 (human) (UniProt Q9HC62); assay: co-IP; 293T cells transfected for 48 h, RIPA lysates, IP and Western blot with anti-HA and anti-Flag antibodies; IP and reciprocal IP
T1 sequence: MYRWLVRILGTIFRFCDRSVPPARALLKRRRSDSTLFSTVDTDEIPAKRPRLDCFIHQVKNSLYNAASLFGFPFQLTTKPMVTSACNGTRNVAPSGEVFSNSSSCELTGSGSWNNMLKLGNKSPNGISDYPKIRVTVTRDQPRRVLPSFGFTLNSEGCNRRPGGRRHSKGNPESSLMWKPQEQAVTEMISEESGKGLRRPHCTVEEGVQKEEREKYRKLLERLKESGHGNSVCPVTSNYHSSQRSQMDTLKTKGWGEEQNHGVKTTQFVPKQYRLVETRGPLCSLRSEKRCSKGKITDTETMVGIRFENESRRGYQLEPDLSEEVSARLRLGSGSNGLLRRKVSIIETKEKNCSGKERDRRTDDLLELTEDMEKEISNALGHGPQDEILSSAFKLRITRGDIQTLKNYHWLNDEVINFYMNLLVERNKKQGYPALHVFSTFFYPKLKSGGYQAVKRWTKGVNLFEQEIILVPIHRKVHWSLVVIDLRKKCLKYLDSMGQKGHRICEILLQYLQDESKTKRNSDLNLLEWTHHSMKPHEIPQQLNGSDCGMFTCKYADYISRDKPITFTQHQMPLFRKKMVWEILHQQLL

[1] = molecular target: Smad4 (epitope-tagged, transfected; co-IP of Fig. 3C and Fig. S2A) (UniProt Q13485); assay: co-IP; co-IP of Fig. S2A; cells and antibodies not shown
GST-Smad4 MH2 domain = GST-Smad4 MH2 domain (UniProt Q13485); assay: pull-down; recombinant His-SENP2 363-400 pulled down by GST or GST-Smad4 subdomain proteins; blot with anti-His
GST-Smad4-MH1 = GST-Smad4-MH1 (UniProt Q13485); assay: as above
[2] = molecular target: Smad4 (epitope-tagged, transfected; co-IP of Fig. 3C and Fig. S2A) (UniProt Q13485); assay: co-IP; HeLa cells transfected for 48 h; IP and Western blot with anti-HA and anti-Flag antibodies; SENP3 as negative control for IP
HA-Smad4 = HA-Smad4 (UniProt Q13485); assay: co-IP; 293T cells transfected for 48 h, RIPA lysates, IP and Western blot with anti-HA and anti-Flag antibodies; IP and reciprocal IP
[3] = molecular target: endogenous Smad4 (human (endogenous in MDA-MB-231)) (UniProt Q13485); assay: co-IP; endogenous proteins; nuclear fraction of MDA-MB-231 cells, with or without TGF-β; IP anti-Smad4, blot anti-SENP2
[4] = molecular target: HA-Smad4 overexpressed in MDA-MB-231 cells (UniProt Q13485); assay: co-IP; cytosol and nuclear fractions of HA-Smad4 overexpressing MDA-MB-231 cells, with or without TGF-β; IP anti-HA, blot anti-SENP2

Gal-AD-SENP3 (from UniProt Q9H4L4 1-574) (enzyme)
binding (LexA-Smad4): no binding

HA-Smad4 (from UniProt Q13485 1-552)
binding (Flag-SENP2 (human)): binds

B1: Gal-AD-SENP2 (enzyme, UniProt Q9HC62-1 1-589)
chain: MYRWLVRILGTIFRFCDRSVPPARALLKRRRSDSTLFSTVDTDEIPAKRPRLDCFIHQVKNSLYNAASLFGFPFQLTTKPMVTSACNGTRNVAPSGEVFSNSSSCELTGSGSWNNMLKLGNKSPNGISDYPKIRVTVTRDQPRRVLPSFGFTLNSEGCNRRPGGRRHSKGNPESSLMWKPQEQAVTEMISEESGKGLRRPHCTVEEGVQKEEREKYRKLLERLKESGHGNSVCPVTSNYHSSQRSQMDTLKTKGWGEEQNHGVKTTQFVPKQYRLVETRGPLCSLRSEKRCSKGKITDTETMVGIRFENESRRGYQLEPDLSEEVSARLRLGSGSNGLLRRKVSIIETKEKNCSGKERDRRTDDLLELTEDMEKEISNALGHGPQDEILSSAFKLRITRGDIQTLKNYHWLNDEVINFYMNLLVERNKKQGYPALHVFSTFFYPKLKSGGYQAVKRWTKGVNLFEQEIILVPIHRKVHWSLVVIDLRKKCLKYLDSMGQKGHRICEILLQYLQDESKTKRNSDLNLLEWTHHSMKPHEIPQQLNGSDCGMFTCKYADYISRDKPITFTQHQMPLFRKKMVWEILHQQLL
binding (LexA-Smad4): binds

B2: SENP2^1~400 (domain or fragment, UniProt Q9HC62-1 1-400)
chain: MYRWLVRILGTIFRFCDRSVPPARALLKRRRSDSTLFSTVDTDEIPAKRPRLDCFIHQVKNSLYNAASLFGFPFQLTTKPMVTSACNGTRNVAPSGEVFSNSSSCELTGSGSWNNMLKLGNKSPNGISDYPKIRVTVTRDQPRRVLPSFGFTLNSEGCNRRPGGRRHSKGNPESSLMWKPQEQAVTEMISEESGKGLRRPHCTVEEGVQKEEREKYRKLLERLKESGHGNSVCPVTSNYHSSQRSQMDTLKTKGWGEEQNHGVKTTQFVPKQYRLVETRGPLCSLRSEKRCSKGKITDTETMVGIRFENESRRGYQLEPDLSEEVSARLRLGSGSNGLLRRKVSIIETKEKNCSGKERDRRTDDLLELTEDMEKEISNALGHGPQDEILSSAFKLRITRG
binding [1]: binds

B3: His-SENP2^363~400 (domain or fragment, UniProt Q9HC62-1 363-400)
chain: DDLLELTEDMEKEISNALGHGPQDEILSSAFKLRITRG
binding (GST-Smad4 MH2 domain): no binding | binding (GST-Smad4-MH1): binds

B4: SENP2 (epitope-tagged, transfected; co-IP of Figs 3C and 3D) (enzyme, UniProt Q9HC62-1 1-589)
chain: MYRWLVRILGTIFRFCDRSVPPARALLKRRRSDSTLFSTVDTDEIPAKRPRLDCFIHQVKNSLYNAASLFGFPFQLTTKPMVTSACNGTRNVAPSGEVFSNSSSCELTGSGSWNNMLKLGNKSPNGISDYPKIRVTVTRDQPRRVLPSFGFTLNSEGCNRRPGGRRHSKGNPESSLMWKPQEQAVTEMISEESGKGLRRPHCTVEEGVQKEEREKYRKLLERLKESGHGNSVCPVTSNYHSSQRSQMDTLKTKGWGEEQNHGVKTTQFVPKQYRLVETRGPLCSLRSEKRCSKGKITDTETMVGIRFENESRRGYQLEPDLSEEVSARLRLGSGSNGLLRRKVSIIETKEKNCSGKERDRRTDDLLELTEDMEKEISNALGHGPQDEILSSAFKLRITRGDIQTLKNYHWLNDEVINFYMNLLVERNKKQGYPALHVFSTFFYPKLKSGGYQAVKRWTKGVNLFEQEIILVPIHRKVHWSLVVIDLRKKCLKYLDSMGQKGHRICEILLQYLQDESKTKRNSDLNLLEWTHHSMKPHEIPQQLNGSDCGMFTCKYADYISRDKPITFTQHQMPLFRKKMVWEILHQQLL
binding [2]: binds

B5: Flag-SENP2 (enzyme, UniProt Q9HC62-1 1-589)
chain: MYRWLVRILGTIFRFCDRSVPPARALLKRRRSDSTLFSTVDTDEIPAKRPRLDCFIHQVKNSLYNAASLFGFPFQLTTKPMVTSACNGTRNVAPSGEVFSNSSSCELTGSGSWNNMLKLGNKSPNGISDYPKIRVTVTRDQPRRVLPSFGFTLNSEGCNRRPGGRRHSKGNPESSLMWKPQEQAVTEMISEESGKGLRRPHCTVEEGVQKEEREKYRKLLERLKESGHGNSVCPVTSNYHSSQRSQMDTLKTKGWGEEQNHGVKTTQFVPKQYRLVETRGPLCSLRSEKRCSKGKITDTETMVGIRFENESRRGYQLEPDLSEEVSARLRLGSGSNGLLRRKVSIIETKEKNCSGKERDRRTDDLLELTEDMEKEISNALGHGPQDEILSSAFKLRITRGDIQTLKNYHWLNDEVINFYMNLLVERNKKQGYPALHVFSTFFYPKLKSGGYQAVKRWTKGVNLFEQEIILVPIHRKVHWSLVVIDLRKKCLKYLDSMGQKGHRICEILLQYLQDESKTKRNSDLNLLEWTHHSMKPHEIPQQLNGSDCGMFTCKYADYISRDKPITFTQHQMPLFRKKMVWEILHQQLL
binding (HA-Smad4): binds

B6: endogenous SENP2 (enzyme, UniProt Q9HC62 1-589)
chain: MYRWLVRILGTIFRFCDRSVPPARALLKRRRSDSTLFSTVDTDEIPAKRPRLDCFIHQVKNSLYNAASLFGFPFQLTTKPMVTSACNGTRNVAPSGEVFSNSSSCELTGSGSWNNMLKLGNKSPNGISDYPKIRVTVTRDQPRRVLPSFGFTLNSEGCNRRPGGRRHSKGNPESSLMWKPQEQAVTEMISEESGKGLRRPHCTVEEGVQKEEREKYRKLLERLKESGHGNSVCPVTSNYHSSQRSQMDTLKTKGWGEEQNHGVKTTQFVPKQYRLVETRGPLCSLRSEKRCSKGKITDTETMVGIRFENESRRGYQLEPDLSEEVSARLRLGSGSNGLLRRKVSIIETKEKNCSGKERDRRTDDLLELTEDMEKEISNALGHGPQDEILSSAFKLRITRGDIQTLKNYHWLNDEVINFYMNLLVERNKKQGYPALHVFSTFFYPKLKSGGYQAVKRWTKGVNLFEQEIILVPIHRKVHWSLVVIDLRKKCLKYLDSMGQKGHRICEILLQYLQDESKTKRNSDLNLLEWTHHSMKPHEIPQQLNGSDCGMFTCKYADYISRDKPITFTQHQMPLFRKKMVWEILHQQLL
binding [3]: binds | binding [4]: binds

B7: Gal-AD-SENP2-N (SENP2 regulatory domain, aa 1~362) (domain or fragment, UniProt Q9HC62-1 1-362)
chain: MYRWLVRILGTIFRFCDRSVPPARALLKRRRSDSTLFSTVDTDEIPAKRPRLDCFIHQVKNSLYNAASLFGFPFQLTTKPMVTSACNGTRNVAPSGEVFSNSSSCELTGSGSWNNMLKLGNKSPNGISDYPKIRVTVTRDQPRRVLPSFGFTLNSEGCNRRPGGRRHSKGNPESSLMWKPQEQAVTEMISEESGKGLRRPHCTVEEGVQKEEREKYRKLLERLKESGHGNSVCPVTSNYHSSQRSQMDTLKTKGWGEEQNHGVKTTQFVPKQYRLVETRGPLCSLRSEKRCSKGKITDTETMVGIRFENESRRGYQLEPDLSEEVSARLRLGSGSNGLLRRKVSIIETKEKNCSGKERDRRT
binding (LexA-Smad4): no binding

B8: Flag-SENP2-N (aa 1~362) (domain or fragment, UniProt Q9HC62-1 1-362)
chain: MYRWLVRILGTIFRFCDRSVPPARALLKRRRSDSTLFSTVDTDEIPAKRPRLDCFIHQVKNSLYNAASLFGFPFQLTTKPMVTSACNGTRNVAPSGEVFSNSSSCELTGSGSWNNMLKLGNKSPNGISDYPKIRVTVTRDQPRRVLPSFGFTLNSEGCNRRPGGRRHSKGNPESSLMWKPQEQAVTEMISEESGKGLRRPHCTVEEGVQKEEREKYRKLLERLKESGHGNSVCPVTSNYHSSQRSQMDTLKTKGWGEEQNHGVKTTQFVPKQYRLVETRGPLCSLRSEKRCSKGKITDTETMVGIRFENESRRGYQLEPDLSEEVSARLRLGSGSNGLLRRKVSIIETKEKNCSGKERDRRT
binding (HA-Smad4): no binding
